# Test results as given in the supplement of paper PMC3334620.
# The full ranking holds about 33,000 sequences; the median of “E-score (-0.5 to 0.5)” is about -0.011, and the highest 2% start at about 0.28. The list shows a part of the results.
# Target: T1, Gcr1 (UniProt P07261)
# T1 sequence: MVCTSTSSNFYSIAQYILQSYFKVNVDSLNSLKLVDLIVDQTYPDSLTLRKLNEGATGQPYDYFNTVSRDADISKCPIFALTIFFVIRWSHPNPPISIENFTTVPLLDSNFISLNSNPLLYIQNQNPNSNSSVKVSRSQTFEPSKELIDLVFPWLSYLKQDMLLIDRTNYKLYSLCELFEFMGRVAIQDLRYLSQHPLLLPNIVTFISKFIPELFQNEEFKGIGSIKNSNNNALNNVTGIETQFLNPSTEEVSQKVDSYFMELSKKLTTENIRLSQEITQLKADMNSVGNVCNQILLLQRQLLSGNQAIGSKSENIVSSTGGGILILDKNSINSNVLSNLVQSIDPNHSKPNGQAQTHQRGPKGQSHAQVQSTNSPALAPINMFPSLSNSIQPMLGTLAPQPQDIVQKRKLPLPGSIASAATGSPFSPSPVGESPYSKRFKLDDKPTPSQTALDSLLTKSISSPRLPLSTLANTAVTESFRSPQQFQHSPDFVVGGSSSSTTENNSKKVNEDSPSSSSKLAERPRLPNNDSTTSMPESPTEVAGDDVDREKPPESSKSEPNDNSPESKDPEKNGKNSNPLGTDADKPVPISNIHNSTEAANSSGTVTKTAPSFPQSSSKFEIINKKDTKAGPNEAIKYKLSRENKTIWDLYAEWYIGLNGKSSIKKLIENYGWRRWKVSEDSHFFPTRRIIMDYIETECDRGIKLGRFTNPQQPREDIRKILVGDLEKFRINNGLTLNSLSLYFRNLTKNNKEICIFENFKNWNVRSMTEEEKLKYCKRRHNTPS
# Assay: PBM E-score (8-mer binding enrichment) (E-score (-0.5 to 0.5)); higher = stronger / more preferred TF binding; most listed sequences are background and not binding sites
# Details: protein concentration: 100 nM; construct: GST-full length
# In short: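 Detection of bound protein used fluorescent anti-GST, with scans normalised by masliner. The proteins were GST-tagged yeast transcription factors applied at about 100-200 nM to universal all-10-mer Agilent arrays made double-stranded by primer extension. Each ungapped eight-base word, pooled with its reverse complement, was scored with an E-score from the Universal PBM Analysis Suite.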
row,Sequence,PBM E-score
1,CGATCCAA,0.0146
2,ATCGAATG,0.0142
3,CTATGTAA,0.017
4,AGTGGCTG,0.312
5,AGGCCTGA,-0.0996
6,CACACTTA,-0.298
7,GAGGAGTA,-0.0619
8,GCAACGTA,0.14
9,AGTTAGAA,0.0734
10,CCGGTGTA,-0.0896
11,CCTAAGTA,0.114
12,AACGGCCT,-0.21
13,GGTGAACC,-0.161
14,CCCCGATA,-0.0488
15,CTCGTGGC,0.0439
16,AGTCTATC,-0.228
17,CCCTTAAG,-0.156
18,ATCCGATC,0.0296
19,TATATTGA,0.038
20,ACAACATC,0.0147
21,GCTTATCA,-0.0188
22,AATAACGC,-0.126
23,CTAAAAGA,-0.00143
24,GCTGAGTA,-0.192

row,Sequence,PBM E-score
1,ATTAATGG,0.161
2,ATATACCA,-0.132
3,CCAACTGG,0.0404
4,ATTAACTA,0.0224
5,ATACCGAC,0.0005
6,ACTCGTAC,-0.136
7,GGCTAACA,-0.19
8,AACTAGTT,0.0246
9,GTTCTCCA,-0.137
10,CGACCAAA,-0.129
11,CGTATGGA,0.116
12,AAATATAC,0.0716
13,GGATCATA,0.00563
14,TAGGTGGA,0.0169
15,CCATATAG,0.182
16,ATGCCTCG,-0.138
17,ACCGGGCA,0.0497
18,AAAGCTGC,-0.123
19,GGAGTGCC,0.0413
20,AGAGAGGG,-0.124
21,CATGCAGC,-0.18
22,AACGGTGG,-0.107
23,CATAAGAG,-0.025
24,AGAAGCTC,0.273

row,Sequence,PBM E-score
1,AACCGATG,-0.0829
2,GCCCGACA,0.0396
3,ACGATGAC,-0.0116
4,CGCGTCCG,0.0649
5,GTCAATCA,-0.226
6,AATGAGCC,-0.123
7,AAATGTCT,-0.058
8,ATCTTCCC,-0.0481
9,CCAAGATC,0.201
10,CGCTCGTC,-0.218
11,ACTGCACG,-0.258
12,TCGAGGAA,-0.0383
13,AACACTTG,-0.0906
14,GCCTACAA,-0.132
15,CCCCGAGA,0.0712
16,CGGAGTTA,-0.0496
17,GTTCTAAA,0.0776
18,CGCTCCAA,-0.0355
19,GATGATTA,-0.0692
20,CGTCCGCA,-0.162
21,ACGTTTCC,0.0116
22,ACTAGTAC,0.0609
23,CGTTCTAG,0.0647
24,CTAGACAG,-0.0841

row,Sequence,PBM E-score
1,ACTCCCAA,0.056
2,CTCGAAAG,-0.0701
3,GATCTTCA,-0.101
4,GCCTTTTA,-0.0056
5,ACTAAAAA,0.0363
6,AATTAAGA,0.125
7,GAGACCAA,0.0139
8,CTACAGCA,0.0064
9,CAATGACA,-0.0519
10,GTGTGCAA,-0.105
11,ACGATGAG,-0.24
12,GCATTCAA,0.0558
13,GCTGTTGA,-0.111
14,CCCTAATA,0.24
15,CGATCACA,-0.0285
16,GAGACATA,0.0764
17,CAAACTGA,0.105
18,AATGGTAA,-0.104
19,GAAATAAA,0.206
20,CGCCTGAG,-0.0508
21,CGACCGCG,-0.115
22,ACACACCT,-0.012
